Data as given in PubChem BioAssay AID2451 (National Center for Advancing Translational Sciences (NCATS), 2010).
Several values for one entry are separate records, joined by “and”; a condition that tells them apart may be missing. Identical values can stand only once. Out of some 290,000 compounds screened, about 2,100 (0.72%) were called active. This list was built around the results that the source calls inconclusive (neither active nor inactive); the mix of calls is not that of the screen. The call rests on the fitted dose curve; in most records, active means well fitted inhibition curve with a large enough effect; inconclusive means small, poorly fitted or top-dose-only effect, or effect the other way; inactive means flat fitted curve, though single readings scatter. Where the call is inconclusive, the potency comes from a doubtful curve fit.

Biological target: Fructose-bisphosphate aldolase (Giardia intestinalis (strain ATCC 50803 / WB clone C6)) (UniProt A8B2U2)
Sequence of UniProt A8B2U2 (A8B2U2 whole entry, looked up): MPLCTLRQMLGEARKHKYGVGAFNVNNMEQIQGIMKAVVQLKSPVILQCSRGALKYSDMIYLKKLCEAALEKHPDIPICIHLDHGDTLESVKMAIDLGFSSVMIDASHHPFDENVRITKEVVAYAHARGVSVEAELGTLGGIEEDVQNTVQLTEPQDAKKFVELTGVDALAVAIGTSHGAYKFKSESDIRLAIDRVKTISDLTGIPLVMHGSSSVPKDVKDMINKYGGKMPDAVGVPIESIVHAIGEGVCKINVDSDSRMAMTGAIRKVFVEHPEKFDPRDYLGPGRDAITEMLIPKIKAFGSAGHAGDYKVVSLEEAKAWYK
Test: qHTS Assay for Inhibitors of Fructose-1,6-bisphosphate Aldolase from Giardia Lamblia; further: nearly all actives have a fitted effect of over 55% in size
Details: purified Giardia FBPA; activity, negative = inhibition: at 59.6 µM (top of the series) unless noted
Summary of the method: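 Giardia FBPA (40 nM reagent) was preincubated 10 min at RT with compound (up to 57.5 uM final), then substrate plus GAPDH/TPI/NAD/arsenate coupling system with diaphorase/resazurin was added; resorufin fluorescence (525/598 nm) was read after 20 min.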
On the % scale 0 is the no-effect control and ±100 the full control effect; potency means the concentration at half of the fitted maximal effect; tags describe the fitted curve by direction and shape.

| Structure (SMILES) | Potency | activity, negative = inhibition |
| --- | --- | --- |
| CC1(OC(=O)CCc2ccccc2)C(=O)C=C2C=C(c3ccc(C#N)cc3)N(CC3CC3)C=C2C1=O (stereo not drawn) | inconclusive: 316 nM [inhibitor, full curve] and inconclusive: 561 nM [inhibitor, full curve] |  |
| Cc1ccccc1S(=O)(=O)Cc1ccc(C(=O)NC(C)c2ccccc2)o1 (stereo not drawn) |  | inactive: 6.07% |
| COc1cc(C(=O)NC(=S)N(C)Cc2ccccc2)cc(OC)c1OC | inconclusive: 17.7 µM [inhibitor, partial curve] |  |
| O=C(N/N=C/c1ccccc1C(=O)O)c1cccc(S(=O)(=O)Nc2cc(Cl)ccc2Cl)c1 |  | inactive: 29.9% |
| COc1ccccc1CNc1cc(C)ccc1C |  | inactive: 1.09% |
| CCN(CC)CC(=O)Nc1cc(N(C)C)nc2ccccc12 | active: 5.61 µM |  |
| N#Cc1ccc(C(=O)Nc2cccc(NC(=O)c3ccco3)c2)c(F)c1 |  | inactive: -0.102% |
| CCNC(=S)NNC(=O)c1ccccn1 | inconclusive: 44.6 µM [activator, single point] |  |
| CN(C)S(=O)(=O)c1cccc(NC(=S)NCc2ccco2)c1 | inconclusive: 44.6 µM [inhibitor, single point] |  |
| Cc1cc(C)c([N+](=O)[O-])cc1-c1ccc(/C=N/c2c(-c3ccco3)nc3ccccn23)o1 | inconclusive: 17.7 µM [inhibitor, partial curve] |  |
| CC(=O)[C@]1(O)Cc2c(O)c3c(c(O)c2[C@@H](O[C@H]2C[C@H](N)[C@H](O)[C@H](C)O2)C1)C(=O)c1c(O)cccc1C3=O | inconclusive: 12.6 µM [inhibitor, partial curve] |  |
| O=C(N/N=C/c1cccc(Oc2ccccc2)c1)c1ccccc1Br | inconclusive: 15.8 µM [inhibitor, single point] |  |
| COC(=O)c1ccccc1C(=O)c1ccc2c(c1)NC(=O)CO2 | inconclusive: 15.8 µM [inhibitor, partial curve] |  |
| C[C@@H](CO)NC(=O)[C@@H]1C=C2c3cccc4[nH]cc(c34)C[C@H]2N(C)C1 | inconclusive: 15.8 µM [inhibitor, partial curve] |  |
| O=C(Cc1n[nH]c(=O)[nH]c1=O)N/N=C/c1ccccc1O | inconclusive: 3.15 µM [inhibitor, full curve] |  |
| COc1cc(/C=C2\CCCc3c2nc2ccccc2c3C(=O)O)cc(Cl)c1O | inconclusive: 15.8 µM [inhibitor, single point] |  |
| CC(=O)OCCNc1cc(SCc2ccco2)c2nonc2c1[N+](=O)[O-] | inconclusive: 0.792 µM [inhibitor, full curve] |  |
| CC(C(=O)N(C)Cc1ccccc1)N1CCN(C/C=C/c2ccccc2)CC1 (stereo not drawn) | inconclusive: 17.7 µM [inhibitor, partial curve] |  |
